# The supplement of paper PMC8728848
# The other results are listed elsewhere or left out.
# Experiments:
# Experiment in all cases: glycan array binding signal (z-score within array); higher = stronger binding
# Conditions in all cases: glycan notation: IUPAC condensed, linker removed
# [1] = target: Fuc(a1-3)[Gal(b1-4)]GlcNAc
# Outline: (§1)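 Negative Z-scores can be read as non-binding. The Z-score is calculated within each array and then averaged across arrays of one protein sequence at different concentrations or buffers and across linkers. Arrays, 3228 in all, were curated from the Consortium for Functional Glycomics database and kept only where the protein sequence was available.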
# [2] = target: Fuc(a1-3)[Gal(b1-4)]GlcNAc(b1-4)Gal(b1-4)[Fuc(a1-3)]GlcNAc
# Outline: as §1
# [3] = target: Fuc(a1-3)[Gal(b1-4)]GlcNAc(b1-4)Gal(b1-4)[Fuc(a1-3)]GlcNAc(b1-4)Gal(b1-4)[Fuc(a1-3)]GlcNAc
# Outline: as §1
# [4] = target: Fuc(a1-3)[Gal3S(b1-4)]GlcNAc
# Outline: as §1
# [5] = target: Fuc(a1-3)[GalNAc(b1-4)]GlcNAc
# Outline: as §1
# Fuc(a1-4)GlcNAc = target: Fuc(a1-4)GlcNAc
# Outline: as §1
# Fuc(b1-3)GlcNAc = target: Fuc(b1-3)GlcNAc
# Outline: as §1
# Gal(a1-2)Gal = target: Gal(a1-2)Gal
# Outline: as §1
# Gal(a1-3)Gal = target: Gal(a1-3)Gal
# Outline: as §1
# Gal(a1-3)Gal(b1-3)GlcNAc = target: Gal(a1-3)Gal(b1-3)GlcNAc
# Outline: as §1
# Gal(a1-3)Gal(b1-4)Glc = target: Gal(a1-3)Gal(b1-4)Glc
# Outline: as §1
# Gal(a1-3)Gal(b1-4)GlcNAc = target: Gal(a1-3)Gal(b1-4)GlcNAc
# Outline: as §1
# [6] = target: Gal(a1-3)Gal(b1-4)[Fuc(a1-3)]GlcNAc
# Outline: as §1
# Gal(a1-3)GalNAc = target: Gal(a1-3)GalNAc
# Outline: as §1
# [7] = target: Gal(a1-3)[Gal(a1-4)]Gal(b1-4)GlcNAc
# Outline: as §1
# Gal(a1-4)Gal(b1-4)Glc = target: Gal(a1-4)Gal(b1-4)Glc
# Outline: as §1
# Gal(a1-4)Gal(b1-4)GlcNAc = target: Gal(a1-4)Gal(b1-4)GlcNAc
# Outline: as §1
# Gal(a1-4)GlcNAc = target: Gal(a1-4)GlcNAc
# Outline: as §1
# Gal(a1-6)Glc = target: Gal(a1-6)Glc
# Outline: as §1
# Gal(b1-2)Gal = target: Gal(b1-2)Gal
# Outline: as §1
# Gal(b1-3)Gal = target: Gal(b1-3)Gal
# Outline: as §1
# Gal(b1-3)GalNAc = target: Gal(b1-3)GalNAc
# Outline: as §1
# [8] = target: Gal(b1-3)GalNAc(b1-3)Gal(a1-4)Gal(b1-4)Glc
# Outline: as §1
# [9] = target: Gal(b1-3)GalNAc(b1-4)Gal(b1-4)Glc
# Outline: as §1
# [10] = target: Gal(b1-3)GalNAc(b1-4)[Neu5Ac(a2-3)]Gal(b1-4)Glc
# Outline: as §1
# Gal(b1-3)GlcNAc = target: Gal(b1-3)GlcNAc
# Outline: as §1
# [11] = target: Gal(b1-3)GlcNAc(b1-3)Gal(b1-4)Glc
# Outline: as §1
# [12] = target: Gal(b1-3)GlcNAc(b1-3)Gal(b1-4)GlcNAc
# Outline: as §1
# [13] = target: Gal(b1-3)[Fuc(a1-4)]GlcNAc
# Outline: as §1
# [14] = target: Gal(b1-3)[Fuc(a1-4)]GlcNAc(b1-3)Gal(b1-4)GlcNAc
# Outline: as §1
# [15] = target: Gal(b1-3)[Fuc(a1-4)]GlcNAc(b1-3)Gal(b1-4)[Fuc(a1-3)]GlcNAc
# Outline: as §1
# [16] = target: Gal(b1-3)[GlcNAc(b1-6)]GalNAc
# Outline: as §1
# [17] = target: Gal(b1-3)[Neu5Ac(a2-6)]GalNAc
# Outline: as §1
# [18] = target: Gal(b1-3)[Neu5Ac(a2-6)]GlcNAc(b1-6)Gal(b1-4)Glc
# Outline: as §1
# [19] = target: Gal(b1-3)[Neu5Ac(b2-6)]GalNAc
# Outline: as §1
# [20] = target: Gal(b1-4)GalNAc(a1-3)[Fuc(a1-2)]Gal(b1-4)GlcNAc
# Outline: as §1
# [21] = target: Gal(b1-4)GalNAc(b1-3)[Fuc(a1-2)]Gal(b1-4)GlcNAc
# Outline: as §1
# Gal(b1-4)Glc = target: Gal(b1-4)Glc
# Outline: as §1
# Gal(b1-4)Glc6S = target: Gal(b1-4)Glc6S
# Outline: as §1
# Gal(b1-4)GlcNAc = target: Gal(b1-4)GlcNAc
# Outline: as §1
# [22] = target: Gal(b1-4)GlcNAc(b1-2)Man(a1-3)[Gal(b1-4)GlcNAc(b1-2)Man(a1-6)]Man(b1-4)GlcNAc(b1-4)GlcNAc
# Outline: as §1
# [23] = target: Gal(b1-4)GlcNAc(b1-3)Gal(b1-4)Glc
# Outline: as §1
# [24] = target: Gal(b1-4)GlcNAc(b1-3)Gal(b1-4)GlcNAc
# Outline: as §1
# [25] = target: Gal(b1-4)GlcNAc(b1-3)Gal(b1-4)GlcNAc(b1-3)Gal(b1-4)GlcNAc
# Outline: as §1
# [26] = target: Gal(b1-4)GlcNAc(b1-3)Gal(b1-4)[Fuc(a1-3)]GlcNAc(b1-3)Gal(b1-4)[Fuc(a1-3)]GlcNAc
# Outline: as §1
# [27] = target: Gal(b1-4)GlcNAc(b1-3)GalNAc
# Outline: as §1
# [28] = target: Gal(b1-4)GlcNAc(b1-3)[Gal(b1-4)GlcNAc(b1-6)]GalNAc
# Outline: as §1
# [29] = target: Gal(b1-4)GlcNAc(b1-6)Gal(b1-4)GlcNAc(b1-6)GalNAc
# Outline: as §1
# [30] = target: Gal(b1-4)GlcNAc(b1-6)GalNAc
# Outline: as §1
# [31] = target: Gal(b1-4)GlcNAc(b1-6)[Gal(b1-3)]GalNAc
# Outline: as §1
# Gal3S(b1-3)GalNAc = target: Gal3S(b1-3)GalNAc
# Outline: as §1
# Gal3S(b1-3)GlcNAc = target: Gal3S(b1-3)GlcNAc
# Outline: as §1
# [32] = target: Gal3S(b1-3)[Fuc(a1-4)]GlcNAc
# Outline: as §1
# Gal3S(b1-4)Glc = target: Gal3S(b1-4)Glc
# Outline: as §1
# Gal3S(b1-4)Glc6S = target: Gal3S(b1-4)Glc6S
# Outline: as §1
# Gal3S(b1-4)GlcNAc = target: Gal3S(b1-4)GlcNAc
# Outline: as §1
# Gal3S(b1-4)GlcNAc6S = target: Gal3S(b1-4)GlcNAc6S
# Outline: as §1
# Gal3S6S(b1-4)GlcNAc = target: Gal3S6S(b1-4)GlcNAc
# Outline: as §1
# Gal3S6S(b1-4)GlcNAc6S = target: Gal3S6S(b1-4)GlcNAc6S
# Outline: as §1
# Gal4S(b1-4)GlcNAc = target: Gal4S(b1-4)GlcNAc
# Outline: as §1
binder,measurement,setting,value
"MMR (Homo sapiens), P22897 (protein) MRLPLLLVFASVIPGAVLLLDTRQFLIYNEDHKRCVDAVSPSAVQTAACNQDAESQKFRWVSESQIMSVAFKLCLGVPSKTDWVAITLYACDSKSEFQKWECKNDTLLGIKGEDLFFNYGNRQEKNIMLYKGSGLWSRWKIYGTTDNLCSRGYEAMYTLLGNANGATCAFPFKFENKWYADCTSAGRSDGWLWCGTTTDYDTDKLFGYCPLKFEGSESLWNKDPLTSVSYQINSKSALTWHQARKSCQQQNAELLSITEIHEQTYLTGLTSSLTSGLWIGLNSLSFNSGWQWSDRSPFRYLNWLPGSPSAEPGKSCVSLNPGKNAKWENLECVQKLGYICKKGNTTLNSFVIPSESDVPTHCPSQWWPYAGHCYKIHRDEKKIQRDALTTCRKEGGDLTSIHTIEELDFIISQLGYEPNDELWIGLNDIKIQMYFEWSDGTPVTFTKWLRGEPSHENNRQEDCVVMKGKDGYWADRGCEWPLGYICKMKSRSQGPEIVEVEKGCRKGWKKHHFYCYMIGHTLSTFAEANQTCNNENAYLTTIEDRYEQAFLTSFVGLRPEKYFWTGLSDIQTKGTFQWTIEEEVRFTHWNSDMPGRKPGCVAMRTGIAGGLWDVLKCDEKAKFVCKHWAEGVTHPPKPTTTPEPKCPEDWGASSRTSLCFKLYAKGKHEKKTWFESRDFCRALGGDLASINNKEEQQTIWRLITASGSYHKLFWLGLTYGSPSEGFTWSDGSPVSYENWAYGEPNNYQNVEYCGELKGDPTMSWNDINCEHLNNWICQIQKGQTPKPEPTPAPQDNPPVTEDGWVIYKDYQYYFSKEKETMDNARAFCKRNFGDLVSIQSESEKKFLWKYVNRNDAQSAYFIGLLISLDKKFAWMDGSKVDYVSWATGEPNFANEDENCVTMYSNSGFWNDINCGYPNAFICQRHNSSINATTVMPTMPSVPSGCKEGWNFYSNKCFKIFGFMEEERKNWQEARKACIGFGGNLVSIQNEKEQAFLTYHMKDSTFSAWTGLNDVNSEHTFLWTDGRGVHYTNWGKGYPGGRRSSLSYEDADCVVIIGGASNEAGKWMDDTCDSKRGYICQTRSDPSLTNPPATIQTDGFVKYGKSSYSLMRQKFQWHEAETYCKLHNSLIASILDPYSNAFAWLQMETSNERVWIALNSNLTDNQYTWTDKWRVRYTNWAADEPKLKSACVYLDLDGYWKTAHCNESFYFLCKRSDEIPATEPPQLPGRCPESDHTAWIPFHGHCYYIESSYTRNWGQASLECLRMGSSLVSIESAAESSFLSYRVEPLKSKTNFWIGLFRNVEGTWLWINNSPVSFVNWNTGDPSGERNDCVALHASSGFWSNIHCSSYKGYICKRPKIIDAKPTHELLTTKADTRKMDPSKPSSNVAGVVIIVILLILTGAGLAAYFFYKKRRVHLPQEGAFENTLYFNSQSSPGTSDMKDLVGNIEQNEHSVI",glycan array binding signal (z-score),[1],-0.427
same,glycan array binding signal (z-score),[2],0.036
same,glycan array binding signal (z-score),[3],-0.405
same,glycan array binding signal (z-score),[4],2.96
same,glycan array binding signal (z-score),[5],-0.4
same,glycan array binding signal (z-score),Fuc(a1-4)GlcNAc,-0.416
same,glycan array binding signal (z-score),Fuc(b1-3)GlcNAc,-0.438
same,glycan array binding signal (z-score),Gal(a1-2)Gal,-0.425
same,glycan array binding signal (z-score),Gal(a1-3)Gal,-0.396
same,glycan array binding signal (z-score),Gal(a1-3)Gal(b1-3)GlcNAc,-0.433
same,glycan array binding signal (z-score),Gal(a1-3)Gal(b1-4)Glc,-0.425
same,glycan array binding signal (z-score),Gal(a1-3)Gal(b1-4)GlcNAc,-0.44
same,glycan array binding signal (z-score),[6],-0.4
same,glycan array binding signal (z-score),Gal(a1-3)GalNAc,-0.441
same,glycan array binding signal (z-score),[7],-0.452
same,glycan array binding signal (z-score),Gal(a1-4)Gal(b1-4)Glc,-0.228
same,glycan array binding signal (z-score),Gal(a1-4)Gal(b1-4)GlcNAc,-0.43
same,glycan array binding signal (z-score),Gal(a1-4)GlcNAc,-0.437
same,glycan array binding signal (z-score),Gal(a1-6)Glc,-0.364
same,glycan array binding signal (z-score),Gal(b1-2)Gal,-0.42
same,glycan array binding signal (z-score),Gal(b1-3)Gal,-0.41
same,glycan array binding signal (z-score),Gal(b1-3)GalNAc,-0.441
same,glycan array binding signal (z-score),[8],-0.345
same,glycan array binding signal (z-score),[9],-0.399
same,glycan array binding signal (z-score),[10],-0.424
same,glycan array binding signal (z-score),Gal(b1-3)GlcNAc,-0.43
same,glycan array binding signal (z-score),[11],-0.419
same,glycan array binding signal (z-score),[12],-0.371
same,glycan array binding signal (z-score),[13],-0.375
same,glycan array binding signal (z-score),[14],-0.367
same,glycan array binding signal (z-score),[15],-0.37
same,glycan array binding signal (z-score),[16],-0.434
same,glycan array binding signal (z-score),[17],-0.404
same,glycan array binding signal (z-score),[18],-0.433
same,glycan array binding signal (z-score),[19],-0.418
same,glycan array binding signal (z-score),[20],-0.343
same,glycan array binding signal (z-score),[21],-0.406
same,glycan array binding signal (z-score),Gal(b1-4)Glc,-0.419
same,glycan array binding signal (z-score),Gal(b1-4)Glc6S,-0.34
same,glycan array binding signal (z-score),Gal(b1-4)GlcNAc,-0.431
same,glycan array binding signal (z-score),[22],-0.445
same,glycan array binding signal (z-score),[23],-0.427
same,glycan array binding signal (z-score),[24],-0.424
same,glycan array binding signal (z-score),[25],-0.466
same,glycan array binding signal (z-score),[26],0.283
same,glycan array binding signal (z-score),[27],-0.448
same,glycan array binding signal (z-score),[28],-0.437
same,glycan array binding signal (z-score),[29],-0.253
same,glycan array binding signal (z-score),[30],-0.446
same,glycan array binding signal (z-score),[31],-0.446
same,glycan array binding signal (z-score),Gal3S(b1-3)GalNAc,3.15
same,glycan array binding signal (z-score),Gal3S(b1-3)GlcNAc,3.4
same,glycan array binding signal (z-score),[32],3.07
same,glycan array binding signal (z-score),Gal3S(b1-4)Glc,3.67
same,glycan array binding signal (z-score),Gal3S(b1-4)Glc6S,3.45
same,glycan array binding signal (z-score),Gal3S(b1-4)GlcNAc,3.27
same,glycan array binding signal (z-score),Gal3S(b1-4)GlcNAc6S,3.5
same,glycan array binding signal (z-score),Gal3S6S(b1-4)GlcNAc,3.33
same,glycan array binding signal (z-score),Gal3S6S(b1-4)GlcNAc6S,3.58
same,glycan array binding signal (z-score),Gal4S(b1-4)GlcNAc,3.33
